These results are taken from article PMC4336329 (PLoS ONE, 2015).

Out of some 310,000 compounds screened, about 14,000 (4.5%) showed an effect of 50% or more. The effect is printed as a negative number. This is one part of the list.
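Further: peak tail current of the secondary pulse compared with the same well before compound.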

The target in the assay is human ether-à-go-go-related gene (hERG) potassium channel (human, UniProt Q12809). The assay is described as follows: primary screen, population patch clamp on CHO cells stably expressing hERG.
human ether-à-go-go-related gene (hERG) potassium channel, sequence (Q12809 whole entry, looked up): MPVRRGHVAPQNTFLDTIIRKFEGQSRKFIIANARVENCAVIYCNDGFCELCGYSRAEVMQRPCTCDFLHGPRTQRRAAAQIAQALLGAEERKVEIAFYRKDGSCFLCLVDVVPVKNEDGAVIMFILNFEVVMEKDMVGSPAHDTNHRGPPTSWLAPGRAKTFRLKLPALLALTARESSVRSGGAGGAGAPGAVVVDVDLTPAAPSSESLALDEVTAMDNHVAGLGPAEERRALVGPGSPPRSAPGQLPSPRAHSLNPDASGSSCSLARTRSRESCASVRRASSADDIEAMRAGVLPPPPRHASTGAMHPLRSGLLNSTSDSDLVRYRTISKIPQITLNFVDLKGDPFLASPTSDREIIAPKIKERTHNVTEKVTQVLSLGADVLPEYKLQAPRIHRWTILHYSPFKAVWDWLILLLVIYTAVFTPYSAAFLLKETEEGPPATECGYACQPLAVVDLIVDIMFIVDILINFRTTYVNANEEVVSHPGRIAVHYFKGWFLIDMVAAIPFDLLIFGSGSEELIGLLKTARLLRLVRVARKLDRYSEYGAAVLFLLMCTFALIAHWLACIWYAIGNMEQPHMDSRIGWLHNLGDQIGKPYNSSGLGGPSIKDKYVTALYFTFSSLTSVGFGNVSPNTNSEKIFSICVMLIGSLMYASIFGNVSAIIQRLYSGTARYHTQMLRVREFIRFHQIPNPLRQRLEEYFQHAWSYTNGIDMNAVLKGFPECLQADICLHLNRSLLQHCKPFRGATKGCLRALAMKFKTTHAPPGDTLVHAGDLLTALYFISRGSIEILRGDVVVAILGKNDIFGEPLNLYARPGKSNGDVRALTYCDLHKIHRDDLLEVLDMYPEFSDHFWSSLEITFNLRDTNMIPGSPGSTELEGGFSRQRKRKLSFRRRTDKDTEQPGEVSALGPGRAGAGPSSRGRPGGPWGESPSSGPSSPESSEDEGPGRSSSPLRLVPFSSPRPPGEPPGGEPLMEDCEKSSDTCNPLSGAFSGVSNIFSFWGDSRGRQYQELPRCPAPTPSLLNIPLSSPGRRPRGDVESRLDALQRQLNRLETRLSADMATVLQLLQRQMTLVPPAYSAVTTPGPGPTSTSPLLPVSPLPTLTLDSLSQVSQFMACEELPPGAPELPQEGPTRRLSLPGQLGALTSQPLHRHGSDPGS
In the case of `Nc1cccc(/C=C/C(=O)O)c1`, the “hERG current change (%, negative = inhibition) at 10uM” value was found to be 20.1%.
The value for `COc1ccc(/C=C/C(=O)N(CC(C)C)CC(C)C)cc1Br` was -2.75%; that for `N#C/C(C(=O)N1CCCCC1)=C1/N=C(NC(=O)c2ccc(F)cc2)c2ccccc21` was 19.3%; that for `CCN(CC)S(=O)(=O)c1cccc(NC(=O)C2CC(=O)N(c3ccc4c(c3)OCCO4)C2)c1` (centres unmarked) was -39.8%.
The value for `Cc1cc[n+](CC(=O)N2CCCc3ccccc32)cc1.[Cl-]` was 23.9%.
Regarding `O=C(CCn1c(=S)[nH]c2ccccc2c1=O)NCCc1ccc(Cl)cc1`, the “hERG current change (%, negative = inhibition) at 10uM” value is given as 5.03%.
The value for `O=C(Nc1ccc(F)cc1F)c1cc2ccccc2oc1=O` was 0.944%; that for `O=C(Nc1ccc([N+](=O)[O-])cc1)Nc1ccc(N2CCOCC2)c2nonc12` was 17.6%.
To `CCN(CC(=O)NC1CCS(=O)(=O)C1)S(=O)(=O)c1ccc(F)cc1` (centres unmarked) belongs 18.9%; to `COc1ccc(CC(=O)N2N=C(c3ccncc3)CC2(O)C(F)(F)F)cc1` (centres unmarked), 0.84%.
The value for `O=C(CNC(=O)c1ccc(Br)o1)NCc1ccccc1` was 6.66%; that for `COc1ccccc1N(CC(=O)NCCSCc1ccco1)S(=O)(=O)c1ccccc1` was -26.6%; that for `CCOC(=O)c1ccc(NC(=O)CSc2nnc(COc3ccccc3)n2C)cc1` was 3.57%.
Consider `CCCCCC(O)c1cccc(OCc2ccc3ccccc3n2)c1` (centres unmarked), for which the “hERG current change (%, negative = inhibition) at 10uM” value stood at 13%.
With `CN1CCN(C(=O)/C(=C/c2ccccc2)c2ccccc2)CC1`, the “hERG current change (%, negative = inhibition) at 10uM” value is on record as -54.8%.
The value for `Cc1c(Cl)cccc1NC(=O)CC1NCCNC1=O` (centres unmarked) was 14.4%; that for `Cc1cccc(NC(=O)C2COc3ccccc3O2)c1` (centres unmarked) was 11.6%; that for `Cc1nc2ccccn2c1/C(O)=C1\C(=O)C(=O)N(CCN2CCOCC2)C1c1cccnc1` (centres unmarked) was 22.7%.
As to `FC(F)(F)c1cnc(NNC(=S)Nc2ccccc2Cl)c(Cl)c1`, the “hERG current change (%, negative = inhibition) at 10uM” value came to 8.48%.
To `NC(=O)c1ccc(SCC(=O)OCC(=O)NC2CCCCCCC2)c([N+](=O)[O-])c1` belongs -1.95%; to `O=C(COC(=O)c1ccccc1NC(=O)c1ccco1)NC1CCS(=O)(=O)C1` (centres unmarked), -2.03%.
As for `C=CCNC(=O)Cn1nnc(-c2ccc(-c3ccc(OC)cc3)cc2)n1`, the “hERG current change (%, negative = inhibition) at 10uM” value was 19.9%.
To `COc1ccccc1CNC(=O)C1CC(=O)N(C2CCCC2)C1` (centres unmarked) belongs 3.29%; to `COc1ccc(C2=CC(=O)CC(C)(C)C2)cc1`, -2.21%; to `CN1CCN(C(=S)c2ccc(N(C)C)cc2)CC1`, 17.1%.
For `O=C(N1CCN(c2ccccn2)CC1)C(Cl)(Cl)Cl`, the “hERG current change (%, negative = inhibition) at 10uM” value came to 1.01%.
The value for `Cc1nc(-c2ccccn2)nc(N2CCOCC2)c1Cl` was 5.21%; that for `CC1CC(C)CN(S(=O)(=O)c2ccc3c(c2)CC(C)N3C(=O)C2CCC2)C1` (centres unmarked) was 4.7%; that for `Cc1ccc(/C=N/NC(=O)CNC(=O)COc2ccc(Cl)cc2)o1` was -4.35%.
To `O=C(NCCc1ccccc1)C1CCCN(C(=O)NC2CCCCC2)C1` (centres unmarked) belongs -2.39%; to `c1n[nH]c(SCCCCSc2ncn[nH]2)n1`, -3.39%.
The value for `CCn1cc(/C=N/O)c(C)n1` was 16.3%; that for `COC(=O)c1cc(N2C(=O)C3C4C=CC(CC4)C3C2=O)ccc1Cl` (centres unmarked) was 10.8%; that for `COCc1cc(C)n(CC(=O)Nc2cc(C)cc(C)c2)c(=O)c1C#N` was 4.07%.
For `C=CCn1c(Cc2cccs2)nnc1SCC(=O)Nc1cc(OC)cc(OC)c1`, the “hERG current change (%, negative = inhibition) at 10uM” value is -27.8%.
The value for `CCN(CC(=O)NC)S(=O)(=O)c1ccc(C)cc1` was 9.49%; that for `Cc1ccccc1-n1nnnc1SCCCC(=O)c1ccc(F)cc1` was -12%; that for `COc1ccc(-c2nn(-c3ccccc3)cc2C(=O)N(C)CC(=O)Nc2cccc(F)c2)cc1` was 3.07%.
The value for `O=S(=O)(Nc1ccccc1N1CCOCC1)c1ccc(Cl)cc1` was -20.3%; that for `CCC(=NCCC(c1ccccc1)c1ccccc1)c1c(O)n(C)c(=O)n(C)c1=O` was -12%.
The value for `CCOC(=O)N1CCN(C(=O)c2ccc3c(=O)n(-c4ccc(OC)cc4)c(=S)[nH]c3c2)CC1` was 18.4%; that for `O=C(c1cnn(-c2ccccc2)c1)c1cc(F)ccc1O` was 14.6%; that for `C=CCn1c(COc2ccc3c(c2)CCCC3)nnc1SCC(=O)Nc1cccc(SC)c1` was 15.1%.
As for `CC(C)Cc1ccc(C(C)C(=O)Nc2ccc(O)cc2)cc1` (centres unmarked), the “hERG current change (%, negative = inhibition) at 10uM” value is 11.3%.
As for `C=CCN1C(=O)CSc2ccc(C(=O)NCc3cccs3)cc21`, the “hERG current change (%, negative = inhibition) at 10uM” value was -14.3%.
To `Cc1cc(C(=O)NC2CCCc3ccccc32)ccc1[N+](=O)[O-]` (centres unmarked) belongs 9.18%; to `O=C(O)COc1cccc(NC(=O)C2CCCO2)c1` (centres unmarked), 10%; to `COc1cc(C(=O)O)c2ccccc2n1`, 15.7%.
Take `N#Cc1c2c(c[nH]c1=O)CCN2Cc1ccccc1`: the “hERG current change (%, negative = inhibition) at 10uM” value is reported as 11.9%.
The value for `CCCCN(CC)c1nc(N)c(C#N)c(CC#N)c1C#N` was -24.9%; that for `CN1CCN(C(=O)c2cnn3c(C(F)(F)F)cc(-c4ccc5c(c4)OCO5)nc23)CC1` was -14.7%; that for `Cc1csc(NC(=O)CCC(=O)N(CC(=O)NC2CCCC2)Cc2ccccc2)n1` was -26.9%.
Take `Cc1ccc2[nH]c3c(=O)n4c(nc3c2c1)SCC4`: the “hERG current change (%, negative = inhibition) at 10uM” value was 23.6%.
In the case of `COc1cccc(NC(=O)Cn2c3ccc(OC)cc3c3nc4n(c(=O)c32)CCS4)c1`, the “hERG current change (%, negative = inhibition) at 10uM” value amounted to 12%.
Take `NC(N)=NS(=O)(=O)c1ccc(NC(=S)NC(=O)/C=C/c2cccs2)cc1`: the “hERG current change (%, negative = inhibition) at 10uM” value is listed as 9.7%.
For the molecule `Cc1ccc(C(=O)NC(=C(Cl)Cl)S(=O)(=O)c2ccccc2)cc1`, the “hERG current change (%, negative = inhibition) at 10uM” value is reported as 15.4%.
Consider `COc1ccc(OC)c(N2C(=O)NC(=O)C(CCc3ccncc3)(CCc3ccncc3)C2=O)c1`, for which the “hERG current change (%, negative = inhibition) at 10uM” value is -41.2%.
On to `Cc1ccc(C(=O)Cn2cnc3ccccc3c2=O)cc1C`, for which the “hERG current change (%, negative = inhibition) at 10uM” value was found to be 2.57%.
Consider `O=C(Cc1noc2ccccc12)Nc1ccccn1`, for which the “hERG current change (%, negative = inhibition) at 10uM” value is 6.57%.
The value for `O=C(OCC(=O)c1ccc(Cl)cc1Cl)c1ccc2c(c1)C(=O)N(c1cccc3ncccc13)C2=O` was 4.97%; that for `Cc1cc(NC(=O)CSc2nc3ccccc3c(=O)n2C2CCCC2)no1` was -4.71%.
To `CCOC(=O)c1cnn(-c2nc(CC)nc3sc4c(c23)CCC4)c1N` belongs 8.44%; to `Cc1cc2ccccn2c1C(C[N+](=O)[O-])c1ccc(N(C)C)cc1` (centres unmarked), 24.1%; to `S=C1NC2(CCCCC2)NN1c1ccccc1`, -7.66%.
Regarding `COc1ccc(C(=O)C2CCCN(C3CSCCSC3)C2)c(C)c1` (centres unmarked), the “hERG current change (%, negative = inhibition) at 10uM” value is recorded as -13%.
Take `CC(=O)Nc1ccc(NC(=O)CCCCCN2C(=O)c3ccccc3C2=O)cc1`: the “hERG current change (%, negative = inhibition) at 10uM” value was -1.63%.
The value for `NC(=O)NC(=O)COC(=O)[C@H](Cc1ccccc1)NC(=O)c1cccs1` was 4.21%; that for `CCOC(=O)C1CCCN(C(=O)c2ccc(CS(=O)(=O)c3ccc(Br)cc3)o2)C1` (centres unmarked) was -38.8%.
For `COc1ccccc1N1CCN(C(=O)c2cc3cc(Cl)ccc3[nH]2)CC1`, the “hERG current change (%, negative = inhibition) at 10uM” value is given as 5.58%.
The value for `COc1cc(Cc2[nH+]ccc3cc(OC)c(OC)cc23)c(S(=O)(=O)[O-])cc1OC` was 11.6%.
On to `O=C(CSc1ncccn1)N/N=C/c1cccs1`, for which the “hERG current change (%, negative = inhibition) at 10uM” value is 5.75%.
On to `COC(=O)c1[nH]c(C)c(/C(O)=C2\C(=O)C(=O)N(CCN(C)C)C2c2cccc(OC)c2OC)c1C` (centres unmarked), for which the “hERG current change (%, negative = inhibition) at 10uM” value is on record as 15.1%.
As for `COc1ccc(S(=O)(=O)N2CCCOC2CNC(=O)C(=O)NCc2ccccc2F)cc1C` (centres unmarked), the “hERG current change (%, negative = inhibition) at 10uM” value was determined as 15.4%.
The value for `COc1ccc(COC[C@H](C)[C@H](O)[C@@H](C)[C@H]2OC(=O)[C@@H]2C)cc1` was 13.6%; that for `CCN(CC)CCN(CC(=O)N(C1CCCCC1)C1CCCCC1)C(=O)c1cccnc1.Cl.O` was -71.9%; that for `O=C(NC1CCN(C(=O)Nc2cccc(F)c2)CC1)c1ccco1` was -9.05%.
For `CC(Oc1cccc(Br)c1)C(=O)N1CCCN(C)CC1` (centres unmarked), the “hERG current change (%, negative = inhibition) at 10uM” value is reported as -7.34%.
As to `CC1(C)C(=O)OC(c2c3ccccc3cc3ccccc23)C(C)(C)C1=O` (centres unmarked), the “hERG current change (%, negative = inhibition) at 10uM” value was -10.3%.
The value for `CN1CCN(CCCNC(=O)c2ccc(CS(=O)(=O)c3ccc(Br)cc3)o2)CC1` was -10.3%.
Consider `CN(C)N1C(N)=C(C#N)C(c2cccnc2)C2=C1CCCC2=O` (centres unmarked), for which the “hERG current change (%, negative = inhibition) at 10uM” value is -9.73%.
For `Cc1nc2sc(C)c(C)c2c(=O)[nH]1`, the “hERG current change (%, negative = inhibition) at 10uM” value was 13.7%.
For `CCC(=O)Nc1ccc(N2CCCCC2)cc1`, the “hERG current change (%, negative = inhibition) at 10uM” value is 19.6%.
The value for `COC(=O)COc1c(/C=C\c2nc(O)c([N+](=O)[O-])c(=O)[nH]2)cccc1OC` was 8.99%.
To `COc1nccnc1NS(=O)(=O)c1ccc(NCc2cc(Br)ccc2O)cc1` belongs -12.6%.
To `COc1ccc(NC(=O)/C=C/c2cccc(Br)c2)cn1` belongs -3.16%; to `CC(C)(C)c1ccc(CN(Cc2ccco2)Cc2nnnn2C2CCCC2)cc1`, 7.72%; to `CC1CC(=O)Nc2ccccc2N1S(=O)(=O)c1ccc(Cl)cc1` (centres unmarked), 13.4%.
Consider `COC(=O)C1C(O)=C(C=NCc2ccccc2)C(=O)CC1(C)C` (centres unmarked), for which the “hERG current change (%, negative = inhibition) at 10uM” value is -5.13%.
The value for `COc1cc2c(cc1NC(=O)c1ccco1)CCCC2` was -25.5%.
